Assay results reported in the supplement of paper PMC8728848.
The other results are listed elsewhere or left out.

What was measured:
Test in all cases: glycan array binding signal (z-score within array); higher = stronger binding
Conditions in all cases: glycan notation: IUPAC condensed, linker removed
[1] = molecular target: Neu5Ac(a2-6)Gal(b1-4)GlcNAc(b1-2)Man(a1-3)[Man(a1-6)]Man(b1-4)GlcNAc(b1-4)GlcNAc
Procedure, shortened: (§1)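 From the Consortium for Functional Glycomics database, 3228 arrays were curated, keeping only those whose protein sequence was available. Binding is given as a within-array Z-score averaged across arrays sharing a protein sequence and across linkers. Negative Z-scores can be read as non-binding.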

[2] = molecular target: Neu5Ac(a2-6)Gal(b1-4)GlcNAc(b1-2)Man(a1-3)[Neu5Ac(a2-3)Gal(b1-4)GlcNAc(b1-2)Man(a1-6)]Man(b1-4)GlcNAc(b1-4)GlcNAc
Procedure, shortened: as §1

[3] = molecular target: Neu5Ac(a2-6)Gal(b1-4)GlcNAc(b1-2)Man(a1-3)[Neu5Ac(a2-6)Gal(b1-4)GlcNAc(b1-2)Man(a1-6)]Man(b1-4)GlcNAc(b1-4)GlcNAc
Procedure, shortened: as §1

[4] = molecular target: Neu5Ac(a2-6)Gal(b1-4)GlcNAc(b1-2)Man(a1-3)[Neu5Ac(a2-6)Gal(b1-4)GlcNAc(b1-2)Man(a1-6)]Man(b1-4)GlcNAc(b1-4)[Fuc(a1-6)]GlcNAc
Procedure, shortened: as §1

[5] = molecular target: Neu5Ac(a2-6)Gal(b1-4)GlcNAc(b1-2)Man(a1-6)Man(b1-4)GlcNAc(b1-4)GlcNAc
Procedure, shortened: as §1

[6] = molecular target: Neu5Ac(a2-6)Gal(b1-4)GlcNAc(b1-2)Man(a1-6)[Gal(b1-4)GlcNAc(b1-2)Man(a1-3)]Man(b1-4)GlcNAc(b1-4)GlcNAc
Procedure, shortened: as §1

[7] = molecular target: Neu5Ac(a2-6)Gal(b1-4)GlcNAc(b1-2)Man(a1-6)[GlcNAc(b1-2)Man(a1-3)]Man(b1-4)GlcNAc(b1-4)GlcNAc
Procedure, shortened: as §1

[8] = molecular target: Neu5Ac(a2-6)Gal(b1-4)GlcNAc(b1-2)Man(a1-6)[Man(a1-3)]Man(b1-4)GlcNAc(b1-4)GlcNAc
Procedure, shortened: as §1

[9] = molecular target: Neu5Ac(a2-6)Gal(b1-4)GlcNAc(b1-2)[Neu5Ac(a2-6)Gal(b1-4)GlcNAc(b1-4)]Man(a1-3)[GlcNAc(b1-4)][Neu5Ac(a2-6)Gal(b1-4)GlcNAc(b1-2)[Neu5Ac(a2-6)Gal(b1-4)GlcNAc(b1-6)]Man(a1-6)]Man(b1-4)GlcNAc(b1-4)GlcNAc
Procedure, shortened: as §1

[10] = molecular target: Neu5Ac(a2-6)Gal(b1-4)GlcNAc(b1-2)[Neu5Ac(a2-6)Gal(b1-4)GlcNAc(b1-4)]Man(a1-3)[GlcNAc(b1-4)][Neu5Ac(a2-6)Gal(b1-4)GlcNAc(b1-4)Man(a1-6)]Man(b1-4)GlcNAc(b1-4)GlcNAc
Procedure, shortened: as §1

[11] = molecular target: Neu5Ac(a2-6)Gal(b1-4)GlcNAc(b1-2)[Neu5Ac(a2-6)Gal(b1-4)GlcNAc(b1-6)]Man(a1-6)[Neu5Ac(a2-6)Gal(b1-4)GlcNAc(b1-2)Man(a1-3)][GlcNAc(b1-4)]Man(b1-4)GlcNAc(b1-4)GlcNAc
Procedure, shortened: as §1

[12] = molecular target: Neu5Ac(a2-6)Gal(b1-4)GlcNAc(b1-3)Gal(b1-3)GlcNAc
Procedure, shortened: as §1

[13] = molecular target: Neu5Ac(a2-6)Gal(b1-4)GlcNAc(b1-3)Gal(b1-4)GlcNAc
Procedure, shortened: as §1

[14] = molecular target: Neu5Ac(a2-6)Gal(b1-4)GlcNAc(b1-3)Gal(b1-4)GlcNAc(b1-2)Man(a1-3)[Neu5Ac(a2-6)Gal(b1-4)GlcNAc(b1-3)Gal(b1-4)GlcNAc(b1-2)Man(a1-6)]GalNAc
Procedure, shortened: as §1

[15] = molecular target: Neu5Ac(a2-6)Gal(b1-4)GlcNAc(b1-3)Gal(b1-4)GlcNAc(b1-3)Gal(b1-4)GlcNAc
Procedure, shortened: as §1

[16] = molecular target: Neu5Ac(a2-6)Gal(b1-4)GlcNAc(b1-3)Gal(b1-4)GlcNAc(b1-3)Gal(b1-4)GlcNAc(b1-2)Man(a1-3)[Neu5Ac(a2-6)Gal(b1-4)GlcNAc(b1-3)Gal(b1-4)GlcNAc(b1-3)Gal(b1-4)GlcNAc(b1-2)Man(a1-6)]GalNAc
Procedure, shortened: as §1

[17] = molecular target: Neu5Ac(a2-6)Gal(b1-4)GlcNAc(b1-3)Gal(b1-4)GlcNAc(b1-3)GalNAc
Procedure, shortened: as §1

[18] = molecular target: Neu5Ac(a2-6)Gal(b1-4)GlcNAc(b1-3)Gal(b1-4)GlcNAc(b1-3)[Neu5Ac(a2-6)Gal(b1-4)GlcNAc(b1-3)Gal(b1-4)GlcNAc(b1-6)]GalNAc
Procedure, shortened: as §1

[19] = molecular target: Neu5Ac(a2-6)Gal(b1-4)GlcNAc(b1-3)Gal(b1-4)GlcNAc(b1-6)[Gal(b1-3)]GalNAc
Procedure, shortened: as §1

[20] = molecular target: Neu5Ac(a2-6)Gal(b1-4)GlcNAc(b1-3)Gal(b1-4)[Fuc(a1-3)]GlcNAc(b1-3)Gal(b1-4)[Fuc(a1-3)]GlcNAc
Procedure, shortened: as §1

[21] = molecular target: Neu5Ac(a2-6)Gal(b1-4)GlcNAc(b1-3)GalNAc
Procedure, shortened: as §1

[22] = molecular target: Neu5Ac(a2-6)Gal(b1-4)GlcNAc(b1-3)[Neu5Ac(a2-6)Gal(b1-4)GlcNAc(b1-6)]GalNAc
Procedure, shortened: as §1

[23] = molecular target: Neu5Ac(a2-6)Gal(b1-4)GlcNAc(b1-6)GalNAc
Procedure, shortened: as §1

[24] = molecular target: Neu5Ac(a2-6)Gal(b1-4)GlcNAc(b1-6)[Gal(b1-3)GlcNAc(b1-3)]Gal(b1-4)Glc
Procedure, shortened: as §1

[25] = molecular target: Neu5Ac(a2-6)Gal(b1-4)GlcNAc(b1-6)[Gal(b1-3)]GalNAc
Procedure, shortened: as §1

[26] = molecular target: Neu5Ac(a2-6)Gal(b1-4)GlcNAc6S
Procedure, shortened: as §1

[27] = molecular target: Neu5Ac(a2-6)GalNAc
Procedure, shortened: as §1

[28] = molecular target: Neu5Ac(a2-6)GalNAc(b1-4)GlcNAc
Procedure, shortened: as §1

[29] = molecular target: Neu5Ac(a2-6)GalNAc(b1-4)GlcNAc6S
Procedure, shortened: as §1

[30] = molecular target: Neu5Ac(a2-6)GlcNAc(b1-4)GlcNAc
Procedure, shortened: as §1

[31] = molecular target: Neu5Ac(a2-6)GlcNAc(b1-4)GlcNAc(b1-4)GlcNAc
Procedure, shortened: as §1

B1: PX9961X-pdi-531-24-531 (Parabacteroides distasonis) (protein)
chain: DLTEEIHSSVIAENYYNNAGEVMAAMMRPWGHFCGTMQVAQSPWSCNELSSDCAAWPQKGRHGYDNGDWIRLHRHQWIPTDGQVVDAWKKLFEGIGYANNFLTDTENIDFEALQVPMSKAQAQAEMRVYRAYCYWYVMDMFGTAPICEKIGEINPSSKSRAELFAWIEKELNESIPSLSESKTETYGRVSKWGAYALLARLYLNAEIYTGQARWDDCIAACDELAKGGFALDKKWNDTFRADNDKRSTEIIWSIVYDEVYAKGMGWYQRWLHYAHQTGWDLQSGPWNGLVTQPTFYDSFADNDLRKIEGFLIGKQYPRKVDENGNYYYDTTAEPLKGSEEYNGQDLVFVNYIKSMTEGEENSGARSIKYEIQPGTTGDMNNDWVMFRYSEVIYNKAEALMRKNGGKATQEVVDMINSVRQRSFKAEDWEKAKYTTATLTMDEFLAEKGREFAFEGIRRTDLVRFNKFVTTSWWDKTASNEPKRNIFPIPQRQLDANANLSPNEANSLF
How did the “glycan array binding signal (z-score)” value [1] turn out when B1 was run?
Its value is -0.755.

And the “glycan array binding signal (z-score)” value [2]?
Its value is 0.014.

And the “glycan array binding signal (z-score)” value [3]?
The value was 0.135.

And the “glycan array binding signal (z-score)” value [4]?
Its value is 0.542.

And the “glycan array binding signal (z-score)” value [5]?
The value was -0.137.

And the “glycan array binding signal (z-score)” value [6]?
The value was -0.801.

What about the “glycan array binding signal (z-score)” value [7] of the same binder?
The value was -0.316.

And the “glycan array binding signal (z-score)” value [8]?
The value was -0.33.

What about the “glycan array binding signal (z-score)” value [9] of the same binder?
The value was -0.359.

What about the “glycan array binding signal (z-score)” value [10] of the same binder?
Its value is -0.551.

And the “glycan array binding signal (z-score)” value [11]?
The value was -0.658.

What about the “glycan array binding signal (z-score)” value [12] of the same binder?
Its value is -0.821.

And the “glycan array binding signal (z-score)” value [13]?
Its value is 0.024.

What about the “glycan array binding signal (z-score)” value [14] of the same binder?
The value was 0.561.

And the “glycan array binding signal (z-score)” value [15]?
Its value is -0.299.

And the “glycan array binding signal (z-score)” value [16]?
The value was 1.33.

What about the “glycan array binding signal (z-score)” value [17] of the same binder?
Its value is -0.35.

And the “glycan array binding signal (z-score)” value [18]?
The value was 0.102.

And the “glycan array binding signal (z-score)” value [19]?
Its value is -0.281.

What about the “glycan array binding signal (z-score)” value [20] of the same binder?
Its value is -0.181.

What about the “glycan array binding signal (z-score)” value [21] of the same binder?
The value was -0.381.

What about the “glycan array binding signal (z-score)” value [22] of the same binder?
Its value is 2.09.

What about the “glycan array binding signal (z-score)” value [23] of the same binder?
Its value is -0.482.

And the “glycan array binding signal (z-score)” value [24]?
Its value is -0.144.

What about the “glycan array binding signal (z-score)” value [25] of the same binder?
Its value is -0.606.

And the “glycan array binding signal (z-score)” value [26]?
Its value is -0.205.

And the “glycan array binding signal (z-score)” value [27]?
Its value is -0.425.

And the “glycan array binding signal (z-score)” value [28]?
The value was -0.003.

And the “glycan array binding signal (z-score)” value [29]?
Its value is 0.378.

What about the “glycan array binding signal (z-score)” value [30] of the same binder?
Its value is -0.539.

What about the “glycan array binding signal (z-score)” value [31] of the same binder?
Its value is -0.245.
